Results as given in the supplement of paper PMC12217912.
This is one part of the list. The full chains were built here from the parent and the listed change. Values near 0.05 are background.

B1: TEV protease; numbered along this chain (parent)
chain: MGESLFKGPRDYNPISSSICHLTNESDGHTTSLYGIGFGPFIITNKHLFRRNNGTLVVQSLHGVFKVKDTTTLQQHLVDGRDMIIIRMPKDFPPFPQKLKFREPQREERICLVTTNFQTKSMSSMVSDTSCTFPSGDGIFWKHWIQTKDGQCGSPLVSTRDGFIVGIHSASNFTNTNNYFTSVPKNFMELLTNQEAQQWVSGWRLNADSVLWGGHKVFMVKPEEPFQPVKEATQL

Variants of: B1
Assay: raw area under fraction-flipped curve 0-4 h after induction (AUC4h, not background-subtracted), DNA-recorder readout of cleavage of the substrate (dimensionless); higher = more cleavage of the substrate by the protease variant
Conditions: temperature: 34 °C; time window: 0-4 h after rhamnose induction
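Note: Bxb1 expression induced with 0.2% (w/v) L-rhamnose at OD600 near 0.5, cultures sampled hourly, flipped fraction per protease–substrate barcode pair counted by paired-end Illumina sequencing.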

MGESLFKGPRDYNPISSSICHLTNESDGHTTSLYGIGFGPFIITNKHLFRRNNGTLVVQSLHGVFKVKDTTTLQQHLVDGRDMIIIRMPKDFPPFPQKLKFREPQREERICLVTTNFQTKSMSSMVSDTSCTFPSGDGIFWKHWIQTKDGQCGSPLVSTRDGFIVGIHSASNFTNTNNYFTSYPKNFMELLTNQEAQQWVSGWRLNADSVLWGGHKVFMVKPEEPFQPVKEATQL [V183Y]
area with substrate ECLYFQS: 0.0828 | area with substrate EGLYFQS: 0.0574 | area with substrate EILYFQS: 0.0499 | area with substrate EKLYFQS: 0.076 | area with substrate EMLYFQS: 0.0763 | area with substrate EPLYFQS: 0.0813 | area with substrate EQLYFQS: 0.0828 | area with substrate ERLYFQS: 0.107 | area with substrate ESLYFQS: 0.0719 | area with substrate ETLYFQS: 0.0905 | area with substrate EVLYFQS: 0.0822

MGESLFKGPRDYNPISSSICHLTNESDGHTTSLYGIGFGPFIITNKHLFRRNNGTLVVQSLHGVFKVKDTTTLQQHLVDGRDMIIIRMPKDFPPFPQKLKFREPQREERICLVTTNFQTKSMSSMVSDTSCTFPSGDGIFWKHWIQTKDGQCGSPLVSTRDGFIVGIHSASNFTNTNNYFTSFPKNFMELLTNQEAQQWVSGWRLNADSVLWGGHKVFMVKPEEPFQPVKEATQL [V183F]
area with substrate ECLYFQS: 0.0959 | area with substrate EDLYFQS: 0.106 | area with substrate EELYFQS: 0.127 | area with substrate EGLYFQS: 0.0822 | area with substrate EHLYFQS: 0.116 | area with substrate EILYFQS: 0.0985 | area with substrate EKLYFQS: 0.101 | area with substrate ELLYFQS: 0.0914 | area with substrate EMLYFQS: 0.116 | area with substrate EPLYFQS: 0.115 | area with substrate EQLYFQS: 0.136 | area with substrate ERLYFQS: 0.101 | area with substrate ESLYFQS: 0.111 | area with substrate EVLYFQS: 0.0713 | area with substrate EWLYFQS: 0.0984 | area with substrate EYLYFQS: 0.0929

MGESLFKGPRDYNPISSSICHLTNESDGHTTSLYGIGFGPFIITNKHLFRRNNGTLVVQSLHGVFKVKDTTTLQQHLVDGRDMIIIRMPKDFPPFPQKLKFREPQREERICLVTTNFQTKSMSSMVSDTSCTFPSGDGIFWKHWIQTKDGQCGSPLVSTRDGFIVGIHSASNFTNTNNLFTSVPKNFMELLTNQEAQQWVSGWRLNADSVLWGGHKVFMVKPEEPFQPVKEATQL [Y179L]
area with substrate ECLYFQS: 0.051 | area with substrate EFLYFQS: 0.0527 | area with substrate EGLYFQS: 0.0625 | area with substrate EILYFQS: 0.0566 | area with substrate EKLYFQS: 0.0728 | area with substrate ELLYFQS: 0.0585 | area with substrate EQLYFQS: 0.0597 | area with substrate ERLYFQS: 0.0472 | area with substrate ESLYFQS: 0.0565 | area with substrate EVLYFQS: 0.0442

MGESLFKGPRDYNPISSSICHLTNESDGHTTSLYGIGFGPFIITNKHLFRRNNGTLVVQSLHGVFKVKDTTTLQQHLVDGRDMIIIRMPKDFPPFPQKLKFREPQREERICLVTTNFQTKSMSSMVSDTSCTFPSGDGIFWKHWIQTKDGQCGSPLVSTRDGFIVGIHSASNFTNTNNYFTSVPKNFMELLTNQEAQQWVSGWRENADSVLWGGHKVFMVKPEEPFQPVKEATQL [L205E]
area with substrate ECLYFQS: 0.0813 | area with substrate EFLYFQS: 0.0745 | area with substrate EHLYFQS: 0.0874 | area with substrate EILYFQS: 0.0553 | area with substrate EMLYFQS: 0.0944 | area with substrate ERLYFQS: 0.0642 | area with substrate ESLYFQS: 0.078 | area with substrate EWLYFQS: 0.0742

MGESLFKGPRDYNPISSSICHLTNESDGHTTSLYGIGFGPFIITNKHLFRRNNGTLVVQSLHGVFKVKDTTTLQQHLVDGRDMIIIRMPKDFPPFPQKLKFREPQREERICLVTTNFQTKSMSSMVSDTSCTFPSGDGIFWKHWIQTKDGQCGSPLVSTRDGFIVGIHSASNFTNTNNYFTSVPKNFMEGLTNQEAQQWVSGWRLNADSVLWGGHKVFMVKPEEPFQPVKEATQL [L190G]
area with substrate ECLYFQS: 0.0421 | area with substrate EELYFQS: 0.0868 | area with substrate EFLYFQS: 0.0793 | area with substrate EGLYFQS: 0.0793 | area with substrate EILYFQS: 0.0697 | area with substrate EQLYFQS: 0.0862 | area with substrate ERLYFQS: 0.0704 | area with substrate ESLYFQS: 0.0782 | area with substrate EVLYFQS: 0.0526 | area with substrate EWLYFQS: 0.0692

MGESLFKGPRDYNPISSSICHLTNESDGHTTSLYGIGFGPFIITNKHLFRRNNGTLVVQSLHGVFKVKDTTTLQQHLVDGRDMIIIRMPKDFPPFPQKLKFREPQREERICLVTTNFQTKSMSSMVSDTSCTFPSGDGIFWKHWIQTKDGQCGSPLVSTRDGFIVGIHSASNFTNTNNYFTSVPKNFMEWLTNQEAQQWVSGWRLNADSVLWGGHKVFMVKPEEPFQPVKEATQL [L190W]
area with substrate ECLYFQS: 0.0836 | area with substrate EFLYFQS: 0.0881 | area with substrate EHLYFQS: 0.0728 | area with substrate EILYFQS: 0.0625 | area with substrate EMLYFQS: 0.0467 | area with substrate EPLYFQS: 0.117 | area with substrate EQLYFQS: 0.109 | area with substrate ERLYFQS: 0.0611 | area with substrate ESLYFQS: 0.0674 | area with substrate EVLYFQS: 0.0703 | area with substrate EYLYFQS: 0.0778

MGESLFKGPRDYNPISSSICHLTNESDGHTTSLYGIGFGPFIITNKHLFRRNNGTLVVQSLHGVFKVKDTTTLQQHLVDGRDMIIIRMPKDFPPFPQKLKFREPQREERICLVTTNFQTKSMSSMVSDTSCTFPSGDGIFWKHWIQTKDGQCGSPLVSTRDGFIVGIHSASNFTNTNNYFTSVPKNFMELLTNQEAQQWVSGWQLNADSVLWGGHKVFMVKPEEPFQPVKEATQL [R204Q]
area with substrate ECLYFQS: 0.122 | area with substrate EDLYFQS: 0.138 | area with substrate EELYFQS: 0.166 | area with substrate EFLYFQS: 0.0929 | area with substrate EGLYFQS: 0.103 | area with substrate EHLYFQS: 0.134 | area with substrate EILYFQS: 0.103 | area with substrate EKLYFQS: 0.114 | area with substrate ELLYFQS: 0.145 | area with substrate EMLYFQS: 0.0982 | area with substrate EPLYFQS: 0.144 | area with substrate EQLYFQS: 0.123 | area with substrate ESLYFQS: 0.122 | area with substrate ETLYFQS: 0.134 | area with substrate EYLYFQS: 0.152

MGESLFKGPRDYNPISSSICHLTNESDGHTTSLYGIGFGPFIITNKHLFRRNNGTLVVQSLHGVFKVKDTTTLQQHLVDGRDMIIIRMPKDFPPFPQKLKFREPQREERICLVTTNFQTKSMSSMVSDTSCTFPSGDGIFWKHWIQTKDGQCGSPLVSTRDGFIVGIHSASNFTNTNNYFTSVPKNFMELLTNPEAQQWVSGWRLNADSVLWGGHKVFMVKPEEPFQPVKEATQL [Q194P]
area with substrate ECLYFQS: 0.0898 | area with substrate EDLYFQS: 0.162 | area with substrate EELYFQS: 0.138 | area with substrate EILYFQS: 0.0967 | area with substrate EKLYFQS: 0.123 | area with substrate EMLYFQS: 0.146 | area with substrate EQLYFQS: 0.106 | area with substrate ERLYFQS: 0.104 | area with substrate ESLYFQS: 0.064 | area with substrate EVLYFQS: 0.118

MGESLFKGPRDYNPISSSICHLTNESDGHTTSLYGIGFGPFIITNKHLFRRNNGTLVVQSLHGVFKVKDTTTLQQHLVDGRDMIIIRMPKDFPPFPQKLKFREPQREERICLVTTNFQTKSMSSMVSDTSCTFPSGDGIFWKHWIQTKDGQCGSPLVSTRDGFIVGIHSASNFTNTNNYFTSVPKNFMELLTNQEAQQWVSLWRLNADSVLWGGHKVFMVKPEEPFQPVKEATQL [G202L]
area with substrate ECLYFQS: 0.0596 | area with substrate EELYFQS: 0.0728 | area with substrate EGLYFQS: 0.0702 | area with substrate EILYFQS: 0.0676 | area with substrate EKLYFQS: 0.0572 | area with substrate ELLYFQS: 0.0581 | area with substrate EMLYFQS: 0.0659 | area with substrate ERLYFQS: 0.0643 | area with substrate ESLYFQS: 0.0638 | area with substrate EVLYFQS: 0.0612 | area with substrate EYLYFQS: 0.0668

MGESLFKGPRDYNPISSSICHLTNESDGHTTSLYGIGFGPFIITNKHLFRRNNGTLVVQSLHGVFKVKDTTTLQQHLVDGRDMIIIRMPKDFPPFPQKLKFREPQREERICLVTTNFQTKSMSSMVSDTSCTFPSGDGIFWKHWIQTKDGQCGSPLVSTRDGFIVGIHSASNFTNTNNYFTSVPKNFMELLTNQEAQQWVSGWRLNADSVLFGGHKVFMVKPEEPFQPVKEATQL [W212F]
area with substrate ECLYFQS: 0.131 | area with substrate EDLYFQS: 0.155 | area with substrate EELYFQS: 0.101 | area with substrate EFLYFQS: 0.0972 | area with substrate EGLYFQS: 0.104 | area with substrate EILYFQS: 0.112 | area with substrate EKLYFQS: 0.169 | area with substrate EMLYFQS: 0.128 | area with substrate EQLYFQS: 0.13 | area with substrate ERLYFQS: 0.122 | area with substrate ESLYFQS: 0.103 | area with substrate EVLYFQS: 0.109 | area with substrate EYLYFQS: 0.142
